The results in this text go back to PMC12820563, “FoxP3 forms a head-to-head dimer in vivo and stabilizes its multimerization on adjacent microsatellites”.

The list shows a part of the results.

This experiment addresses T1, MBP-FoxP1dN (Mus musculus, UniProt P58462 326-579).
T1 sequence: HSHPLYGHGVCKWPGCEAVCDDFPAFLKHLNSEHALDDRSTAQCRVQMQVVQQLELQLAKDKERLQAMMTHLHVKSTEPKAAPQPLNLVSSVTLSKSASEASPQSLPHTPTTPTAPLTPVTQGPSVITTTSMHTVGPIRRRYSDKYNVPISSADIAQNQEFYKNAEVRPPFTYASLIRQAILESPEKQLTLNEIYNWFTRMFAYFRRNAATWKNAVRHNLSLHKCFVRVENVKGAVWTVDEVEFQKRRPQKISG
Kind of experiment: PD-seq (MBP pull-down with sequencing); 20 mM Tris-HCl pH 7.5, 100 mM NaCl, 1.5 mM MgCl2, 0.4 uM protein, 0.1 uM dsDNA library, 30 min, room temperature, amylose pull-down; high values mean tight binding. The note with it: protein: recombinant; tags: His6-MBP; chain copies: 2; dsDNA, one strand shown. Put shortly:
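Binding is given as reads-per-million enrichment, pull-down over input, with replicates pooled. The bait was an N-terminus-lacking mouse FoxP3 or FoxP1 fragment with a His6-MBP tag, expressed in E. coli and used at 0.4 µM with 0.1 µM Klenow-filled degenerate double-stranded DNA library for 30 min at room temperature in Tris pH 7.5 buffer with NaCl and MgCl2. Amylose resin pull-down with three washes was followed by proteinase K release, PCR barcoding and Illumina sequencing.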
Turning to “GATGATTGTTCTCCCAGCTGATGAATTCCCGCGATCGAGTAAACAAATTTTCCTAATCTTTCTGTTCAAGCGCCATCTAC”, the binding signal was 0.769 RPM ratio (pull-down/input).

Turning to “GATGATTGTTCTCCCAGCTGATGAATTAAATAAGTCGAGTAAACAAATTTTCCTAATCTTTCTGTTCAAGCGCCATCTAC”, the binding signal is 1.29 RPM ratio (pull-down/input).

Turning to “GATGATTGTTCTCCCAGCTGATGAATTCTCGCGCTCGAGTAAACAAATTTTCCTAATCTTTCTGTTCAAGCGCCATCTAC”, the binding signal is 0.835 RPM ratio (pull-down/input).

Consider “GATGATTGTTCTCCCAGCTGATGAATTTACAGTCTCGAGTAAACAAATTTTCCTAATCTTTCTGTTCAAGCGCCATCTAC”, for which the binding signal was 1.12 RPM ratio (pull-down/input).

Consider “GATGATTGTTCTCCCAGCTGATGAATTGATCCCTTCGAGTAAACAAATTTTCCTAATCTTTCTGTTCAAGCGCCATCTAC”, for which the binding signal is 1 RPM ratio (pull-down/input).

Take “GATGATTGTTCTCCCAGCTGATGAATTAGGTTTATCGAGTAAACAAATTTTCCTAATCTTTCTGTTCAAGCGCCATCTAC”: the binding signal was 1.33 RPM ratio (pull-down/input).

Consider “GATGATTGTTCTCCCAGCTGATGAATTTCAGCATTCGAGTAAACAAATTTTCCTAATCTTTCTGTTCAAGCGCCATCTAC”, for which the binding signal is 1.13 RPM ratio (pull-down/input).

For “GATGATTGTTCTCCCAGCTGATGAATTTAGTATTTCGAGTAAACAAATTTTCCTAATCTTTCTGTTCAAGCGCCATCTAC”, the binding signal was 1.24 RPM ratio (pull-down/input).

In the case of “GATGATTGTTCTCCCAGCTGATGAATTTTCCGTTTCGAGTAAACAAATTTTCCTAATCTTTCTGTTCAAGCGCCATCTAC”, the binding signal is 0.931 RPM ratio (pull-down/input).

As to “GATGATTGTTCTCCCAGCTGATGAATTTTAGGCATCGAGTAAACAAATTTTCCTAATCTTTCTGTTCAAGCGCCATCTAC”, the binding signal is 1.03 RPM ratio (pull-down/input).

Regarding “GATGATTGTTCTCCCAGCTGATGAATTTCCAATTTCGAGTAAACAAATTTTCCTAATCTTTCTGTTCAAGCGCCATCTAC”, the binding signal was 0.924 RPM ratio (pull-down/input).

On to “GATGATTGTTCTCCCAGCTGATGAATTCCAGCATTCGAGTAAACAAATTTTCCTAATCTTTCTGTTCAAGCGCCATCTAC”, for which the binding signal is 0.998 RPM ratio (pull-down/input).

“GATGATTGTTCTCCCAGCTGATGAATTAAGACTATCGAGTAAACAAATTTTCCTAATCTTTCTGTTCAAGCGCCATCTAC”: the binding signal was 0.891 RPM ratio (pull-down/input).

For “GATGATTGTTCTCCCAGCTGATGAATTATCACTGTCGAGTAAACAAATTTTCCTAATCTTTCTGTTCAAGCGCCATCTAC”, the binding signal is 0.971 RPM ratio (pull-down/input).

For “GATGATTGTTCTCCCAGCTGATGAATTGTGAGGGTCGAGTAAACAAATTTTCCTAATCTTTCTGTTCAAGCGCCATCTAC”, the binding signal is 0.893 RPM ratio (pull-down/input).

On to “GATGATTGTTCTCCCAGCTGATGAATTTTGGCTGTCGAGTAAACAAATTTTCCTAATCTTTCTGTTCAAGCGCCATCTAC”, for which the binding signal is 0.892 RPM ratio (pull-down/input).

Turning to “GATGATTGTTCTCCCAGCTGATGAATTTTCCGCGTCGAGTAAACAAATTTTCCTAATCTTTCTGTTCAAGCGCCATCTAC”, the binding signal is 0.973 RPM ratio (pull-down/input).

Consider “GATGATTGTTCTCCCAGCTGATGAATTGACACAATCGAGTAAACAAATTTTCCTAATCTTTCTGTTCAAGCGCCATCTAC”, for which the binding signal is 1.75 RPM ratio (pull-down/input).

Regarding “GATGATTGTTCTCCCAGCTGATGAATTCAACCATTCGAGTAAACAAATTTTCCTAATCTTTCTGTTCAAGCGCCATCTAC”, the binding signal is 0.878 RPM ratio (pull-down/input).

On to “GATGATTGTTCTCCCAGCTGATGAATTCTCTACTTCGAGTAAACAAATTTTCCTAATCTTTCTGTTCAAGCGCCATCTAC”, for which the binding signal was 0.907 RPM ratio (pull-down/input).

On to “GATGATTGTTCTCCCAGCTGATGAATTCGGGACCTCGAGTAAACAAATTTTCCTAATCTTTCTGTTCAAGCGCCATCTAC”, for which the binding signal is 0.734 RPM ratio (pull-down/input).

Turning to “GATGATTGTTCTCCCAGCTGATGAATTGATGTTATCGAGTAAACAAATTTTCCTAATCTTTCTGTTCAAGCGCCATCTAC”, the binding signal is 2.17 RPM ratio (pull-down/input).

Regarding “GATGATTGTTCTCCCAGCTGATGAATTAAATTAGTCGAGTAAACAAATTTTCCTAATCTTTCTGTTCAAGCGCCATCTAC”, the binding signal is 0.901 RPM ratio (pull-down/input).

As for “GATGATTGTTCTCCCAGCTGATGAATTAGAGGGATCGAGTAAACAAATTTTCCTAATCTTTCTGTTCAAGCGCCATCTAC”, the binding signal is 0.842 RPM ratio (pull-down/input).

For the sequence “GATGATTGTTCTCCCAGCTGATGAATTTCCACTCTCGAGTAAACAAATTTTCCTAATCTTTCTGTTCAAGCGCCATCTAC”, the binding signal was 0.82 RPM ratio (pull-down/input).

With “GATGATTGTTCTCCCAGCTGATGAATTCCCTCATTCGAGTAAACAAATTTTCCTAATCTTTCTGTTCAAGCGCCATCTAC”, the binding signal was 0.843 RPM ratio (pull-down/input).

On to “GATGATTGTTCTCCCAGCTGATGAATTGTGATACTCGAGTAAACAAATTTTCCTAATCTTTCTGTTCAAGCGCCATCTAC”, for which the binding signal was 1.3 RPM ratio (pull-down/input).

On to “GATGATTGTTCTCCCAGCTGATGAATTCCGATTGTCGAGTAAACAAATTTTCCTAATCTTTCTGTTCAAGCGCCATCTAC”, for which the binding signal was 1 RPM ratio (pull-down/input).

In the case of “GATGATTGTTCTCCCAGCTGATGAATTGATTAAGTCGAGTAAACAAATTTTCCTAATCTTTCTGTTCAAGCGCCATCTAC”, the binding signal was 1.11 RPM ratio (pull-down/input).

In the case of “GATGATTGTTCTCCCAGCTGATGAATTAGATATTTCGAGTAAACAAATTTTCCTAATCTTTCTGTTCAAGCGCCATCTAC”, the binding signal is 1.03 RPM ratio (pull-down/input).

For “GATGATTGTTCTCCCAGCTGATGAATTCAGTTGCTCGAGTAAACAAATTTTCCTAATCTTTCTGTTCAAGCGCCATCTAC”, the binding signal is 0.978 RPM ratio (pull-down/input).
